Source: paper PMC4336329 (PLoS ONE, 2015)
Among all 310,000 compounds or so, about 14,000 (4.5%) showed an effect of 50% or more. Effects have a minus sign here. The list shows a part of the results.

These molecules were tested against human ether-à-go-go-related gene (hERG) potassium channel (human, UniProt Q12809) (assay: primary screen, population patch clamp on CHO cells stably expressing hERG).
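Further: peak tail current of the secondary pulse compared with the same well before compound.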

human ether-à-go-go-related gene (hERG) potassium channel, sequence (Q12809 whole entry, looked up): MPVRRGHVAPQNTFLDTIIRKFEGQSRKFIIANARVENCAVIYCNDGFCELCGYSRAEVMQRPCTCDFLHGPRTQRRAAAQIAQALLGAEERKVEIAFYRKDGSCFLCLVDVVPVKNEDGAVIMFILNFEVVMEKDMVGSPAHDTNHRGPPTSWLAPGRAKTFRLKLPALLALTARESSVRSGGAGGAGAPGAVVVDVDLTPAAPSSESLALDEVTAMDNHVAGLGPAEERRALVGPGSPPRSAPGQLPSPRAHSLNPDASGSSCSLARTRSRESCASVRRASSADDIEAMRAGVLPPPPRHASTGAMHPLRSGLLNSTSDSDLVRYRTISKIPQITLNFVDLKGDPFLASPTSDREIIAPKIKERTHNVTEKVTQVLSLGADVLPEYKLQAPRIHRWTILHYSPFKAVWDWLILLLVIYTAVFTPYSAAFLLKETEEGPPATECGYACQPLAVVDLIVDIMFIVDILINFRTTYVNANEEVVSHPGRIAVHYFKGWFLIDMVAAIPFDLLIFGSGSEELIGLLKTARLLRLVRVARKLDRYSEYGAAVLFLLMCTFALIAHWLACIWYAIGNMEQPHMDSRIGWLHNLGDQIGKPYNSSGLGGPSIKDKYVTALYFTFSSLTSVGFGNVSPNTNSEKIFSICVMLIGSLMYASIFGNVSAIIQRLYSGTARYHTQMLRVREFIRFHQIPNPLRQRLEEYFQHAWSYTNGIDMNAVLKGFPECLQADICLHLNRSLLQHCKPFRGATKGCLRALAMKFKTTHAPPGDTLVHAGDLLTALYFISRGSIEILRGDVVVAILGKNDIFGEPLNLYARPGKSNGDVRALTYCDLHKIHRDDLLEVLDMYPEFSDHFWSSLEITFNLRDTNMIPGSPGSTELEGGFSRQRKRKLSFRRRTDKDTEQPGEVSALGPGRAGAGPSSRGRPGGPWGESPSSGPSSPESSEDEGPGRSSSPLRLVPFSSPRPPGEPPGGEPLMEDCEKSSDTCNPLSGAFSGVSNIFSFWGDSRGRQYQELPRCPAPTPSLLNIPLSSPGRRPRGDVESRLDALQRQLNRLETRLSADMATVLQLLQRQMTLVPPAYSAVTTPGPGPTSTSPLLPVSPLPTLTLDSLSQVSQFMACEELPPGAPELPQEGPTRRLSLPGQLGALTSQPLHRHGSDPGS

| Compound | hERG current change (%, negative = inhibition) at 10uM |
| --- | --- |
| O=C(c1ccc(CS(=O)c2ccccc2Cl)o1)N1CCN(c2ccccc2)CC1 (stereo not drawn) | -38.2% |
| COc1ccc(S(=O)(=O)Nc2cc(S(=O)(=O)c3ccccc3)c(O)cc2C)cc1 | -5.41% |
| CCOc1ccc(C(C(=O)NCC2CCCO2)N(Cc2cccc(OC)c2)C(=O)c2snc(C(N)=O)c2N)cc1 (stereo not drawn) | -39.1% |
| CCCCCn1c(CN2CCN(Cc3ccccc3)CC2)nc2c1c(=O)n(C)c(=O)n2C | -68% |
| Cl.OC1(c2ccc(F)cc2)CCN(Cc2ccccc2)C1 (stereo not drawn) | -15.1% |
| COc1ccc(-c2noc(COc3ccc(Cl)c(C)c3)n2)cc1 | 2.81% |
| O=C(Nc1ccc(Cl)c(Cl)c1)C1=Cc2ccccc2OC1 | 8.41% |
| O=c1c(Cc2ccccc2)c(O)nc2n1CCS2 | 22% |
| CCOC(=O)[C@@H]1[C@H]2COc3cc(OC)ccc3[C@@H]2N2C(=O)N(c3ccc(OC)cc3)C(=O)[C@]12C | -3.61% |
| Cc1ccc(NC(=O)CSc2nnc(-c3ccc(S(=O)(=O)N4CCOCC4)cc3)n2C)cc1 | -22.2% |
| CCOc1cccc(-c2nnc3sc(-c4cc(OC)c(OC)c(OC)c4)nn23)c1 | -3.13% |
| CCOc1ccc(N(CC(=O)N/N=C/c2ccc(OC(C)C)cc2)S(C)(=O)=O)cc1 | -5.2% |
| CCC(=O)C1CCCN(C(=O)c2cccc(OC3CCN(S(C)(=O)=O)CC3)c2)C1 (stereo not drawn) | 11.3% |
| CC(NC(=O)CCc1nnc(-c2ccccc2)o1)c1ccccc1 (stereo not drawn) | 5.21% |
| NNC(=O)c1ccc(COc2ccc3ccccc3c2)o1 | 9.74% |
| C=CCNC(=O)c1ccc2c(c1)N(CC)C(=O)c1ccccc1S2 | -10.7% |
| NC(=O)COC(=O)c1ccc(-c2ccc(O)cc2)cc1 | 8.82% |
| CCCCN(c1ccccc1)S(=O)(=O)N(C)C | 7.53% |
| Cc1cc(C)c2nc(NNC(=O)c3ccc(S(=O)(=O)N4CC(C)CC(C)C4)cc3)sc2c1 (stereo not drawn) | 7.37% |
| CC(C)C(=O)NCCn1ccc2ccccc21 | -13.4% |
| CCCOC(=O)c1ccc(-n2nnnc2SCC(=O)N2CCCCC2)cc1 | -3.98% |
| Cc1c(OC(C)C(=O)NCC2CCC(C(=O)O)CC2)ccc2c(-c3ccccc3)cc(=O)oc12 (stereo not drawn) | 8% |

| Compound | hERG current change (%, negative = inhibition) at 10uM |
| --- | --- |
| CC(C)(C)c1ccccc1NC(=S)NCc1ccccc1 | 6.65% |
| CCNc1nc(OC)nc(N2CCC(Cc3ccccc3)CC2)n1 | -1.13% |
| Cc1ccccc1C(=O)N1CCC(C(=O)Nc2ccc3c(c2)OCO3)CC1 | 3.97% |
| Cn1ccnc1Sc1nc(Nc2cccc(Cl)c2)nc(N2CCOCC2)n1 | -36.7% |
| O=S(=O)(Cc1cc(NCc2ccccc2)nc(-c2ccncc2)n1)c1ccccc1 | 20.3% |
| CCC(=O)N(CCC(c1ccccc1)c1ccco1)Cc1cccs1 (stereo not drawn) | -15.9% |
| Cc1cc(C)cc(C(=O)NC(CC(N)=O)c2ccc(NC3CCCCCCC3)c([N+](=O)[O-])c2)c1 (stereo not drawn) | 1.06% |
| COc1ccc(Nc2cc(C)nc(N3CCOCC3)n2)cc1 | -12.2% |
| CCN(CC)CCOC(=O)c1ccc(NC(=O)CCCN2C(=O)/C(=C\c3cccs3)SC2=S)cc1 | -1.35% |
| CCOC(=O)c1cnc2c(OC)cccc2c1NCc1cccnc1 | -72.2% |
| CCOC(=O)CSc1nc2c([nH]c3ccccc32)c(=O)n1C | 16.9% |
| CCN(CC)C(=O)CSC1=C(C#N)C(c2cccs2)C=C(C)N1 (stereo not drawn) | 14.1% |
| Cc1ccc(C)c(N2CCN(C(=O)CCNC(=O)Cn3ccc4ccccc4c3=O)CC2)c1 | -3.39% |
| CCN(C(=O)CN1C(=O)S/C(=C\c2ccc(Cl)cc2)C1=O)C1CCS(=O)(=O)C1 (stereo not drawn) | -9.49% |
| CCOc1ccc(CCNC(=O)CCc2nnc3ccc(N4CCCCC4)nn23)cc1OCC | -18.4% |
| CCN(CC(=O)N1CCCC1)S(=O)(=O)c1ccc(OC)cc1 | 19.8% |
| O=C(Nc1ccc(F)cc1)c1cc(Cl)sc1Cl | 14.5% |
| CC(=O)c1cccc(NC(=O)CSc2nc(=O)n(CCN3CCOCC3)c3c2CCCC3)c1 | -11.2% |
| O=C(Nc1ccc(-c2nc3ccccc3o2)cc1)c1cc(-n2cnnc2)ccc1Cl | -0.947% |
| Cc1nnsc1C(=O)Nc1ccc(Cl)cc1Cl | 7.78% |
| O=c1cc(CO)oc(C(Nc2cccc(C(F)(F)F)c2)c2ccccn2)c1O (stereo not drawn) | 6.7% |
| CC(C)(CCl)C(=O)Nc1ccc(Sc2ccc(F)cc2)cc1 | -11.6% |

| Compound | hERG current change (%, negative = inhibition) at 10uM |
| --- | --- |
| O=C(Nc1ccc(F)cc1)C1CCCN(S(=O)(=O)c2cccc3nonc23)C1 (stereo not drawn) | 5.63% |
| N#CC1=C(O)C(c2ccccc2)n2c1nc(=O)c1ccccc12 (stereo not drawn) | -16.9% |
| CC(C)(C)c1ccc(OCCN2CCCC2)cc1 | -20.6% |
| O=S(=O)(CC(CN1CCCC1)N1CCCC1)c1ccc2ccccc2c1 (stereo not drawn) | -32.7% |
| CC(C)Cc1nnc(NC(=O)CN2C(=O)C3CCCCC3C2=O)s1 (stereo not drawn) | -4.12% |
| COC(=O)c1cccc(NC(=O)CN(c2ccc3c(c2)OCO3)S(C)(=O)=O)c1C | 16.4% |
| COc1ccc(C2=NS(=O)(=O)N(C)C(C(=O)N(C)Cc3ccccc3)=C2)cc1OC | -6.75% |
| C=CCN1C(=O)/C(=C/c2ccc(OC)cc2)S/C1=N/c1nccs1 | 13.4% |
| O=C(CSc1ncccn1)NC(=O)NCc1ccco1 | -43.9% |
| CC1CC(OP(O)(=S)c2ccc(N(C)C)cc2NC(=O)c2cccs2)CC(C)(C)C1 (stereo not drawn) | 8.37% |
| COC(=O)c1oc2nc(C)cc(C)c2c1N | -4.33% |
| CCc1nnc(NC(=O)CN2CCN(c3ccccc3OC)CC2)s1.Cl | -17.6% |
| O=C(NCc1ccccc1)C1CCN(S(=O)(=O)c2cccc3cccnc23)CC1 | -13.8% |
| CC1CC(=O)c2cn3c(nc2C1)nc1ccccc13 (stereo not drawn) | -24.3% |
| O=C(NCCN1CCCCCC1)C1CC(=O)N(CCc2ccccc2)C1 (stereo not drawn) | 3.04% |
| CC12CN3CC(=O)N4CC5(C)CN(CC(C)(C4)C5=O)C(=O)CN(C1)CC(C)(C3)C2=O | 17.6% |
| Cc1ccc(OCCNC(=O)c2cc(-n3cnnc3)ccc2Cl)cc1C | -15% |
| CC(=O)Nc1ccc(NS(=O)(=O)c2cc(C)sc2C)cc1 | -10.6% |
| CCOC(=O)C1CCN(C(=O)COC(=O)c2cccc(F)c2)CC1 | 11.1% |
| O=C(NCC1(c2ccccc2)CCCC1)c1cccc(Br)c1 | 4.39% |
| COc1ccc(-c2noc(CN(C(=O)c3ccoc3C)C(C)C)n2)cc1 | 9.67% |
| Brc1c(CSc2nc3ccccc3o2)nc2ncccn12 | -51.8% |

| Compound | hERG current change (%, negative = inhibition) at 10uM |
| --- | --- |
| CCCn1c2ccc(F)cc2c2nnc(SCCN3CCOCC3)nc21 | -35.8% |
| O=C(NCc1ccc(Cl)cc1)C1CCCN(c2cnccn2)C1 (stereo not drawn) | -66.5% |
| CCCOP(=O)(c1ccc(N(C)C)cc1)C(O)c1cccnc1 (stereo not drawn) | -5.24% |
| O=C(CN1CCOCC1)Nc1ncc(Cc2cccc(Cl)c2Cl)s1 | -51.4% |
| Cc1nc2ccccc2n1S(=O)(=O)c1ccc(S(=O)(=O)N2CCCCCC2)cc1 | 16.8% |
| COc1cc2[nH]c3c(=O)n4c(nc3c2cc1OC)SCCC4 | -10.7% |
| COc1ccccc1CNS(=O)(=O)c1cc(CN2C(=O)c3cccnc3C2=O)ccc1OC | -19.4% |
| Cc1c(C(=O)O)nnn1-c1nonc1N | 27.1% |
| Cc1nnc(N/N=C/c2cc(C)n(-c3ccc(F)cc3)c2C)n1N.Cl | 2.95% |
| COC(=O)c1cc(Cl)c(NS(=O)(=O)c2ccccc2)cc1OC | 15.4% |
| Cc1ccc(-c2nn(-c3ccccc3)cc2C(=O)N2CCN(c3ccccn3)CC2)cc1 | 3.16% |
| CN(C)c1ccc(/C=C(\C#N)C(=O)NCc2ccco2)cc1 | -10.2% |
| O=C(NC1CC1)C1=C[C@@H](c2c[nH]c3ccccc23)C[C@@H](OCc2ccc(CO)cc2)O1 | -40.2% |
| C/C(=N\NC(=O)Cn1nc(C)c(Br)c1C)c1cccs1 | -9.14% |
| COCCNC(=O)CCc1nc2cccnc2n1Cc1ccc(OC)cc1 | 8.65% |
| COc1cc(OC)cc(C(=O)Nc2c(C)nn(-c3ccccc3)c2C)c1 | -3.27% |
| COc1cc(/C=C/c2[nH]c(=O)[nH]c(=O)c2[N+](=O)[O-])cc([N+](=O)[O-])c1O | 21.1% |
| COc1ccc(NC(=O)C(=O)NCC2CCCN2S(=O)(=O)c2cccs2)cc1 (stereo not drawn) | 5.72% |
| Cc1n[nH]c(C)c1CCC(=O)N/N=C/c1cccs1 | 8.73% |
| CCCCN(C(=O)CSCC(=O)Nc1ccc(C)cc1)c1c(N)n(Cc2ccccc2)c(=O)[nH]c1=O | 6.4% |
| OC(c1nnc(-c2ccccc2)o1)c1cccs1 (stereo not drawn) | 19.3% |
